# Measurements from the supplement of paper PMC10441789.
# The list shows a part of the results. Antibody binding of pooled human sera (four to six donors per pool; dilution not stated) to peptides of the Trypanosoma cruzi antigen TSSA on microarrays. Quantile-normalised fluorescence in arbitrary units, mean of duplicate arrays; higher = more binding. No active / inactive call. The uninfected pools are read here as the healthy donors of the same country. The strongest signals lie near the top of the scale (about 60,000).
# System: pooled sera of uninfected people, Colombia
# Assay: antibody binding signal (normalised fluorescence) (arbitrary fluorescence units); higher = stronger serum antibody binding to peptide
# Method: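 Microarray of 15-residue peptides over residues 30-55 of Trypanosoma cruzi TSSAII, each with 1 to 10 substitutions at naturally variable positions, probed with one serum pool per country.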
row,Sequence,antibody binding signal
1,STPPSGTEKKTAAGE,211
2,SGKDKKTAAGGAPSP,236
3,TEKKAAAGGAPSPSG,180
4,NKAAAGETPSPSGAS,419
5,STPPSGKDNKPATGE,251
6,TSSTPPSGKEKKPAT,250
7,TPPSGKDKKTATGGA,202
8,NKPATGETPSQSGAS,306
9,GKDNKPAAGEAPSPP,206
10,DNKPATGGAPSQPGA,356
11,KENKPATGEAPSPSG,205
12,GKEKKAAAGGAPSPP,92.8
13,TDNKTATGGAPSQPG,187
14,GTEKKAATGETPSPP,679
15,GTEKKTATGGTPSQS,820
16,DKKPATGEAPSQSGA,298
17,KENKPATGEAPSQSG,204
18,SGTENKPATGGAPSP,269
19,PSGTENKTATGEAPS,380
20,EKKTAAGGAPSQSGA,177

row,Sequence,antibody binding signal
1,KEKKAATGGAPSPPG,264
2,STPPSGTENKPAAGE,518
3,KEKKPAAGEAPSPPG,77.2
4,SGTDKKTATGGTPSQ,681
5,GKDNKAAAGGAPSQP,143
6,TPPSGKENKPAAGGA,616
7,PSGKENKTATGEAPS,1080
8,SGKDNKTAAGGAPSP,503
9,KDKKTATGGAPSQPG,75.4
10,GKDKKPATGEAPSPS,181
11,GTDNKPATGEAPSQS,175
12,TEKKTATGEAPSPPG,149
13,TEKKAATGGAPSPSG,1100
14,GKENKPAAGETPSQP,229
15,KDNKAAAGETPSQPG,234
16,GKEKKPATGGTPSPS,119
17,GKDKKAATGETPSPP,214
18,TDKKPATGEAPSQPG,216
19,GKDNKPAAGETPSQS,251
20,SGKDKKTATGGTPSQ,191
